From the supplement of paper PMC8728848
The list shows a part of the results.

Assays:
Experiment in all cases: glycan array binding signal (z-score within array); higher = stronger binding
Settings in all cases: glycan notation: IUPAC condensed, linker removed
[1] = molecular target: Gal(b1-4)GlcNAc(b1-2)[Gal(b1-4)GlcNAc(b1-4)]Man(a1-3)[GlcNAc(b1-4)][Gal(b1-4)GlcNAc(b1-2)Man(a1-6)]Man(b1-4)GlcNAc(b1-4)GlcNAc
Summary of the method: (§1)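 The Consortium for Functional Glycomics database supplied 3228 glycan arrays, of which those lacking an available protein sequence were dropped. The binding signal, a within-array Z-score, was averaged across arrays of the same protein sequence and across linkers. Negative scores can be read as non-binding.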

[2] = molecular target: Gal(b1-4)GlcNAc(b1-2)[Gal(b1-4)GlcNAc(b1-4)]Man(a1-3)[GlcNAc(b1-4)][Gal(b1-4)GlcNAc(b1-2)[Gal(b1-4)GlcNAc(b1-6)]Man(a1-6)]Man(b1-4)GlcNAc(b1-4)GlcNAc
Summary of the method: as §1

[3] = molecular target: Gal(b1-4)GlcNAc(b1-2)[Gal(b1-4)GlcNAc(b1-4)]Man(a1-3)[GlcNAc(b1-4)][Gal(b1-4)GlcNAc(b1-2)[Gal(b1-4)GlcNAc(b1-6)]Man(a1-6)]Man(b1-4)GlcNAc(b1-4)[Fuc(a1-6)]GlcNAc
Summary of the method: as §1

[4] = molecular target: Gal(b1-4)GlcNAc(b1-2)[Gal(b1-4)GlcNAc(b1-6)]Man(a1-6)[Gal(b1-4)GlcNAc(b1-2)Man(a1-3)]Man(b1-4)GlcNAc(b1-4)GlcNAc
Summary of the method: as §1

[5] = molecular target: Gal(b1-4)GlcNAc(b1-2)[Gal(b1-4)GlcNAc(b1-6)]Man(a1-6)[Gal(b1-4)GlcNAc(b1-2)Man(a1-3)]Man(b1-4)GlcNAc(b1-4)[Fuc(a1-6)]GlcNAc
Summary of the method: as §1

[6] = molecular target: Gal(b1-4)GlcNAc(b1-2)[Gal(b1-4)GlcNAc(b1-6)]Man(a1-6)[GlcNAc(b1-4)][Gal(b1-4)GlcNAc(b1-2)Man(a1-3)]Man(b1-4)GlcNAc(b1-4)GlcNAc
Summary of the method: as §1

[7] = molecular target: Gal(b1-4)GlcNAc(b1-3)Gal(b1-3)GlcNAc
Summary of the method: as §1

[8] = molecular target: Gal(b1-4)GlcNAc(b1-3)Gal(b1-4)Glc
Summary of the method: as §1

[9] = molecular target: Gal(b1-4)GlcNAc(b1-3)Gal(b1-4)GlcNAc
Summary of the method: as §1

[10] = molecular target: Gal(b1-4)GlcNAc(b1-3)Gal(b1-4)GlcNAc(b1-3)Gal(b1-4)GlcNAc
Summary of the method: as §1

[11] = molecular target: Gal(b1-4)GlcNAc(b1-3)Gal(b1-4)[Fuc(a1-3)GlcNAc(b1-6)]Gal(b1-4)Glc
Summary of the method: as §1

[12] = molecular target: Gal(b1-4)GlcNAc(b1-3)Gal(b1-4)[Fuc(a1-3)]GlcNAc(b1-3)Gal(b1-4)[Fuc(a1-3)]GlcNAc
Summary of the method: as §1

[13] = molecular target: Gal(b1-4)GlcNAc(b1-3)GalNAc
Summary of the method: as §1

[14] = molecular target: Gal(b1-4)GlcNAc(b1-3)[Gal(b1-4)GlcNAc(b1-6)]Gal(b1-4)GlcNAc
Summary of the method: as §1

[15] = molecular target: Gal(b1-4)GlcNAc(b1-3)[Gal(b1-4)GlcNAc(b1-6)]GalNAc
Summary of the method: as §1

[16] = molecular target: Gal(b1-4)GlcNAc(b1-3)[GlcNAc(b1-6)]Gal(b1-4)GlcNAc
Summary of the method: as §1

[17] = molecular target: Gal(b1-4)GlcNAc(b1-6)Gal(b1-4)GlcNAc
Summary of the method: as §1

[18] = molecular target: Gal(b1-4)GlcNAc(b1-6)GalNAc
Summary of the method: as §1

[19] = molecular target: Gal(b1-4)GlcNAc(b1-6)[Gal(b1-3)]GalNAc
Summary of the method: as §1

Gal(b1-4)GlcNAc6P = molecular target: Gal(b1-4)GlcNAc6P
Summary of the method: as §1

Gal(b1-6)Gal = molecular target: Gal(b1-6)Gal
Summary of the method: as §1

Gal3S(b1-3)GalNAc = molecular target: Gal3S(b1-3)GalNAc
Summary of the method: as §1

Gal3S(b1-3)GlcNAc = molecular target: Gal3S(b1-3)GlcNAc
Summary of the method: as §1

[20] = molecular target: Gal3S(b1-3)[Fuc(a1-4)]GlcNAc
Summary of the method: as §1

Gal3S(b1-4)Glc = molecular target: Gal3S(b1-4)Glc
Summary of the method: as §1

Gal3S(b1-4)Glc6S = molecular target: Gal3S(b1-4)Glc6S
Summary of the method: as §1

Gal3S(b1-4)GlcNAc = molecular target: Gal3S(b1-4)GlcNAc
Summary of the method: as §1

Gal3S(b1-4)GlcNAc6S = molecular target: Gal3S(b1-4)GlcNAc6S
Summary of the method: as §1

[21] = molecular target: Gal3S(b1-4)[Fuc(a1-3)]Glc
Summary of the method: as §1

[22] = molecular target: Gal3S(b1-4)[Fuc(a1-3)]Glc6S
Summary of the method: as §1

Gal3S4S(b1-4)GlcNAc = molecular target: Gal3S4S(b1-4)GlcNAc
Summary of the method: as §1

Gal3S6S(b1-4)GlcNAc = molecular target: Gal3S6S(b1-4)GlcNAc
Summary of the method: as §1

Gal3S6S(b1-4)GlcNAc6S = molecular target: Gal3S6S(b1-4)GlcNAc6S
Summary of the method: as §1

Gal4S(b1-4)GlcNAc = molecular target: Gal4S(b1-4)GlcNAc
Summary of the method: as §1

Gal4S6S(b1-4)GlcNAc = molecular target: Gal4S6S(b1-4)GlcNAc
Summary of the method: as §1

Gal6P(b1-4)GlcNAc = molecular target: Gal6P(b1-4)GlcNAc
Summary of the method: as §1

Gal6S(b1-3)GlcNAc = molecular target: Gal6S(b1-3)GlcNAc
Summary of the method: as §1

Gal6S(b1-3)GlcNAc6S = molecular target: Gal6S(b1-3)GlcNAc6S
Summary of the method: as §1

Gal6S(b1-4)Glc = molecular target: Gal6S(b1-4)Glc
Summary of the method: as §1

Gal6S(b1-4)Glc6S = molecular target: Gal6S(b1-4)Glc6S
Summary of the method: as §1

Gal6S(b1-4)GlcNAc = molecular target: Gal6S(b1-4)GlcNAc
Summary of the method: as §1

Gal6S(b1-4)GlcNAc6S = molecular target: Gal6S(b1-4)GlcNAc6S
Summary of the method: as §1

GalNAc(a1-3)Gal = molecular target: GalNAc(a1-3)Gal
Summary of the method: as §1

GalNAc(a1-3)GalNAc = molecular target: GalNAc(a1-3)GalNAc
Summary of the method: as §1

[23] = molecular target: GalNAc(a1-3)GalNAc(b1-3)Gal(a1-4)Gal(b1-4)Glc
Summary of the method: as §1

B1: CCL1 (Coprinopsis cinerea) (protein)
chain: MDTQAKPPAGRYVIYNRVLSPNGEKLALTYPGYQREALTLTPLHHSANQIWILNNWDATTSSLTPETARNTQVGWGSGNVPIVLPPGNYVWTLASSAGGYIIQDGGKTVYWNAGEAVANTKVSIGGDNGLQARWIFERV
glycan array binding signal (z-score) [1]: -0.16 | glycan array binding signal (z-score) [2]: -0.13 | glycan array binding signal (z-score) [3]: -0.127 | glycan array binding signal (z-score) [4]: -0.131 | glycan array binding signal (z-score) [5]: -0.143 | glycan array binding signal (z-score) [6]: -0.142 | glycan array binding signal (z-score) [7]: -0.146 | glycan array binding signal (z-score) [8]: -0.173 | glycan array binding signal (z-score) [9]: -0.171 | glycan array binding signal (z-score) [10]: -0.151 | glycan array binding signal (z-score) [11]: 0.62 | glycan array binding signal (z-score) [12]: 1.12 | glycan array binding signal (z-score) [13]: -0.14 | glycan array binding signal (z-score) [14]: -0.166 | glycan array binding signal (z-score) [15]: -0.153 | glycan array binding signal (z-score) [16]: -0.159 | glycan array binding signal (z-score) [17]: -0.154 | glycan array binding signal (z-score) [18]: -0.142 | glycan array binding signal (z-score) [19]: -0.154 | glycan array binding signal (z-score) (Gal(b1-4)GlcNAc6P): -0.151 | glycan array binding signal (z-score) (Gal(b1-6)Gal): -0.137 | glycan array binding signal (z-score) (Gal3S(b1-3)GalNAc): -0.152 | glycan array binding signal (z-score) (Gal3S(b1-3)GlcNAc): -0.121 | glycan array binding signal (z-score) [20]: -0.116 | glycan array binding signal (z-score) (Gal3S(b1-4)Glc): -0.14 | glycan array binding signal (z-score) (Gal3S(b1-4)Glc6S): -0.083 | glycan array binding signal (z-score) (Gal3S(b1-4)GlcNAc): -0.123 | glycan array binding signal (z-score) (Gal3S(b1-4)GlcNAc6S): -0.062 | glycan array binding signal (z-score) [21]: -0.13 | glycan array binding signal (z-score) [22]: -0.075 | glycan array binding signal (z-score) (Gal3S4S(b1-4)GlcNAc): 0.009 | glycan array binding signal (z-score) (Gal3S6S(b1-4)GlcNAc): -0.165 | glycan array binding signal (z-score) (Gal3S6S(b1-4)GlcNAc6S): -0.145 | glycan array binding signal (z-score) (Gal4S(b1-4)GlcNAc): -0.148 | glycan array binding signal (z-score) (Gal4S6S(b1-4)GlcNAc): -0.168 | glycan array binding signal (z-score) (Gal6P(b1-4)GlcNAc): -0.134 | glycan array binding signal (z-score) (Gal6S(b1-3)GlcNAc): -0.152 | glycan array binding signal (z-score) (Gal6S(b1-3)GlcNAc6S): -0.017 | glycan array binding signal (z-score) (Gal6S(b1-4)Glc): -0.164 | glycan array binding signal (z-score) (Gal6S(b1-4)Glc6S): -0.145 | glycan array binding signal (z-score) (Gal6S(b1-4)GlcNAc): -0.157 | glycan array binding signal (z-score) (Gal6S(b1-4)GlcNAc6S): -0.037 | glycan array binding signal (z-score) (GalNAc(a1-3)Gal): -0.164 | glycan array binding signal (z-score) (GalNAc(a1-3)GalNAc): -0.159 | glycan array binding signal (z-score) [23]: -0.154
